The record followed here is PubChem BioAssay AID488969 (Vanderbilt High Throughput Screening Facility, 2010).

Over roughly 110,000 compounds, “z-score” has its median near -0.1; the highest 2% begin near 2. The list shows a part of the results.

The target of the test is Metabotropic glutamate receptor 8 (Rattus norvegicus) (UniProt P70579). Nature of the test: rat mGluR8 modulators via GIRK flux, primary screen, cell-based, thallium flux, HTS (AID 488969). As to conditions: HEK293 rat mGluR8, GIRK (G protein-gated inwardly rectifying potassium channel) thallium flux, FluoZin2; at 10 µM; stronger effect = higher value; submaximal glutamate (EC20) added with thallium.
Chain of UniProt P70579 (P70579 whole entry, looked up): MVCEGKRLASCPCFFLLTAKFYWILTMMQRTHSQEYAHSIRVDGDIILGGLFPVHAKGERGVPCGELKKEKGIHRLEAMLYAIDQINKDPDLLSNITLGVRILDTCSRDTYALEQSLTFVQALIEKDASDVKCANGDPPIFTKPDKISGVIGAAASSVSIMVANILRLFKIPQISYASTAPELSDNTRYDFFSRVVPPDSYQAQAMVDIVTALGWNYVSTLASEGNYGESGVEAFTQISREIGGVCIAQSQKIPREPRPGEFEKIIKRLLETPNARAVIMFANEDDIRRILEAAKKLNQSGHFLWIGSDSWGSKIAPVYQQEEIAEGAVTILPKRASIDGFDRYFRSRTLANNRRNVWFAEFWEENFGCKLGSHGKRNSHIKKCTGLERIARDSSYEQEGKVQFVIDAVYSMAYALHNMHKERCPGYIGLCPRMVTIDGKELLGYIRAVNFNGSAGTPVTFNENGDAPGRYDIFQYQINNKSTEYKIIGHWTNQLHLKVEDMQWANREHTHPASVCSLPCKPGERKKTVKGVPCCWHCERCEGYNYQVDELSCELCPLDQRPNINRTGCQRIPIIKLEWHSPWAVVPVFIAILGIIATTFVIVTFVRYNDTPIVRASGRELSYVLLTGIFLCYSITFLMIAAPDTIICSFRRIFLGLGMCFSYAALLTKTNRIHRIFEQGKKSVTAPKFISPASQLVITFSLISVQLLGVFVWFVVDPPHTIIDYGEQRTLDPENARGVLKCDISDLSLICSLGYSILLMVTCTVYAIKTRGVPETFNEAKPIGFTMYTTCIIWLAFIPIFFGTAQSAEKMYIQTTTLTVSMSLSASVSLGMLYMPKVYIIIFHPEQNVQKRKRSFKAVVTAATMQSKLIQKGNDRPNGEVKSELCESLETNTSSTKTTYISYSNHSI
For `COc1cc(NC(=O)c2cnn3c(C)cc(C)nc23)c(OC)cc1Cl`, the z-score was -0.00417.

`O=C(CSc1nccn1-c1ccccc1)N1CCc2ccccc21` showed a z-score of -0.925.

Regarding `CCOc1cc(NC(=O)c2cccs2)c(OCC)cc1NC(=O)c1ccco1`, the z-score is -0.433.

`Cc1ccc(C)c(SCC(=O)OCC(=O)c2ccco2)c1` gave a z-score of -0.124.

For the compound `CCOC(=O)c1c(C)oc2ccc(O)c(CN(C)C)c12`, the z-score is 0.911.

With `COc1ccc(OC)c(N(CC(=O)Nc2ccc(NC(C)=O)cc2)S(C)(=O)=O)c1`, the z-score came out at 0.00569.

As to `COc1ccc(OC)c2[nH]c(=O)c(CCNC(=O)CC(C)C)cc12`, the z-score is 0.0956.

With `COc1ccc(N=Nc2[nH]c3ccc(C)cc3c2O)cc1`, the z-score is -0.15.

`O=C1C(Oc2ccccc2)C(c2ccc3c(c2)OCO3)N1CCc1ccc(F)cc1` (configuration not stated): the z-score was -0.198.

For the compound `CCOC(=O)c1[nH]c(C)c(C(=O)Nc2ccc(C)c(Cl)c2)c1C`, the z-score was -0.307.

Take `Cc1cc(C)cc(OCC(=O)Nc2ccc3c4c(cccc24)CC3)c1`: the z-score amounted to 0.316.

`Cc1nc(SCC#N)c2c(C)c(C)sc2n1` gave a z-score of 0.0201.

Take `Cc1ccccc1N1Cc2ccccc2C1`: the z-score is -0.325.

Regarding `CCc1nc2ccccc2c(C(=O)O)c1C`, the z-score was -0.239.

As for `CC(C)CO/C(=N/S(=O)(=O)c1ccccc1)c1ccccc1`, the z-score was -0.662.

`CC(=O)NC(CCS(C)(=O)=O)C(=O)N1CCc2ccccc21` (configuration not stated) had a z-score of -0.105.

Regarding `CC(/C=N\Nc1nnc2c(n1)[nH]c1c(C)cccc12)=C\c1ccco1`, the z-score worked out at 0.162.

In the case of `O=C(NC1CCCCCC1)C1CCCN1S(=O)(=O)c1cccc2cccnc12` (configuration not stated), the z-score was -0.0831.

The compound `Cc1cccc(-c2nnc(SCCC(=O)N3CCOCC3)o2)c1` displayed a z-score of -0.242.

With `CN(NC(=O)Nc1ccc(Cl)cc1)c1ncc(C(F)(F)F)cc1Cl`, the z-score was determined as 0.137.

`COc1ccc2c(c1)-c1nc(/N=C/c3ccc(O)c(OC)c3)sc1CC2`: the z-score is -0.06.

Turning to `COc1ccc(OCC(=O)Nc2ccccc2O)cc1`, the z-score is -0.431.

As for `O=C(CSc1ncn[nH]1)Nc1ccc([N+](=O)[O-])cc1Br`, the z-score is -0.12.

For the compound `Cc1cc(C)n2cc(CSCC(=O)O)nc2n1`, the z-score is 1.46.

For `O=C(/C=C/Sc1ncn[nH]1)c1ccc(Cl)cc1`, the z-score was -0.225.

`CCCC(c1nnnn1CCOC)N1CCN(Cc2ccccc2)CC1` (configuration not stated) had a z-score of -0.131.

`O=C(Nc1ccc2oc(-c3ccccc3)nc2c1)C1CCCO1` (configuration not stated): the z-score was -0.123.

`CCOc1cc2[nH]c(=S)n(CCN3CCCCC3CC)c(=O)c2cc1OCC` (configuration not stated) displayed a z-score of 1.73.

Turning to `CCOC(=O)C1=C(CN2CCc3ccccc32)NC(=O)NC1c1cc(C)ccc1C` (configuration not stated), the z-score is -0.293.

Regarding `N#Cc1ccc(-c2cccnc2)nc1SCc1ccc(Cl)c(Cl)c1`, the z-score turned out to be 0.141.

Compound `CC(=O)[C@@H]1[C@@H](C(=O)c2ccccc2)[C@]2(C(=O)Nc3ccccc32)[C@H]2C=Cc3cc(F)ccc3N12` yielded a z-score of 0.0653.

As to `Cc1ccccc1N(CC(N)=O)S(C)(=O)=O`, the z-score is 0.313.
